# Assay results from PMC4336329 (PLoS ONE, 2015).
# The whole screen tested about 310,000 compounds, of which about 2,200 (0.71%) showed an effect of 50% or more. The effect is printed as a negative number. The list shows a part of the results.
# Molecular target: human ether-à-go-go-related gene (hERG) potassium channel (human, UniProt Q12809)
# Assay: primary screen, population patch clamp on CHO cells stably expressing hERG
# Sequence of human ether-à-go-go-related gene (hERG) potassium channel (Q12809 whole entry, looked up): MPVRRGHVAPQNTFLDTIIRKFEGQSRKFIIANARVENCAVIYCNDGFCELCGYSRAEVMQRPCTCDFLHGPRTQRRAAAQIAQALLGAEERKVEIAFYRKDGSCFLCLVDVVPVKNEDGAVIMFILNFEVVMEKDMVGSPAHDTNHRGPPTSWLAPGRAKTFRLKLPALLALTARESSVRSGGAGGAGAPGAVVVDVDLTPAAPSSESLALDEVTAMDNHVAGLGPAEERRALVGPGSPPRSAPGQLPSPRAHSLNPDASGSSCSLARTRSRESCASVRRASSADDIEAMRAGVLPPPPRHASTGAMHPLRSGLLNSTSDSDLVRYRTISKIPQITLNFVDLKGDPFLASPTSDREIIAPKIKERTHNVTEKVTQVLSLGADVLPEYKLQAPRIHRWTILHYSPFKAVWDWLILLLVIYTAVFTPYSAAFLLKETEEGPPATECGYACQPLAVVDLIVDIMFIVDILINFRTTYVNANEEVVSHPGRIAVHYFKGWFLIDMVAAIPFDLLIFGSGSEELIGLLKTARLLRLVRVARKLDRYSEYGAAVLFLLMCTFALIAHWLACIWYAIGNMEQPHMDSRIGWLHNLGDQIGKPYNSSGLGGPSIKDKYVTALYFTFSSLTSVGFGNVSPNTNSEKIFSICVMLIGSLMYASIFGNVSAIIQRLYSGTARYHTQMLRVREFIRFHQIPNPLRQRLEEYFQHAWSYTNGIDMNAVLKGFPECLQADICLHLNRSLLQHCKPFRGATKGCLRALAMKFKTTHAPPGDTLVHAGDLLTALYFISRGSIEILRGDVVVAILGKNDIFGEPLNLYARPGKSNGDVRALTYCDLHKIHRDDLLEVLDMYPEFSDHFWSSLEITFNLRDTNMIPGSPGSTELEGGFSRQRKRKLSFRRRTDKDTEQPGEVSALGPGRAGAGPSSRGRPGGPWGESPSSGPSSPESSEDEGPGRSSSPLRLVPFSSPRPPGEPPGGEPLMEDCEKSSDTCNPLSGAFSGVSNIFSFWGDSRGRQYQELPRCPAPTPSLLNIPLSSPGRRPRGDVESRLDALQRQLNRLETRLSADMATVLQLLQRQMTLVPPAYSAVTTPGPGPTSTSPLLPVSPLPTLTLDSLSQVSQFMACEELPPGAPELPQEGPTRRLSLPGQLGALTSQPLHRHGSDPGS
row,Compound,"hERG current change (%, negative = inhibition) at 1uM"
1,O=C(N[C@@H](Cc1ccccc1)C(=O)OCc1ccccc1)c1nc[nH]c1C(=O)N1CCc2ccccc2C1,10%
2,COc1cccc(-c2nc(CS(=O)(=O)CC(=O)NC3CCCCC3C)c(C)o2)c1 (centres unmarked),-3.64%
3,Oc1ccccc1N1CCN(C(c2ccccc2)c2ccccc2)CC1,13.7%
4,O=C(OCc1nnc(-c2ccccc2)o1)C1CC(=O)N(CCc2ccccc2)C1 (centres unmarked),8.19%
5,O=C(O)CCCn1cc(NC(=O)COc2ccccc2[N+](=O)[O-])cn1,12%
6,CCn1cc(/C=C(\NC(=O)c2ccc(OC)c(OC)c2)C(=O)NCCCO)c2ccccc21,15.8%
7,COCC(C)n1c(SCC(=O)Nc2oc(C)c3c(C)n[nH]c(=O)c23)nc2ccccc2c1=O (centres unmarked),16.7%
8,CCOC(=O)C1=C(CSc2nc3c(cc2C#N)CN(C)CC3)OC(N)=C(C#N)C1c1ccncc1 (centres unmarked),12.1%
9,Cc1cc(C)cc(NC(=O)C(Sc2nnc(C)c(=O)[nH]2)c2ccccc2)c1 (centres unmarked),12.8%
10,Cc1onc(-c2c(F)cccc2Cl)c1C(=O)NCc1ccccn1,12.3%
11,O=C(CS(=O)CC(=O)N(CC(=O)NC1CCCC1)C1CCCCC1)Nc1ccc(F)cc1 (centres unmarked),4.06%
12,O=C(Nc1cccc(NC(=O)c2cccs2)c1)c1ccc2c(c1)OCCO2,6.14%
13,CCN(c1ccccc1)S(=O)(=O)c1ccc2[nH]cc(C(=O)N3CCOCC3)c(=O)c2c1,8.43%
14,O=C(CSc1nc2c(sc3ccccc32)c(=O)n1CCO)NCc1ccco1,-1%
15,COc1ccc(OC)c(/C=C/C(=O)N2CCN(S(=O)(=O)c3cc(C)ccc3C)CC2)c1,10.6%
16,COc1ccccc1CNC(=O)c1ccccc1OC,5.69%
17,CN1CCN(c2cc(=O)n(C3CCCCC3)c(=O)[nH]2)CC1,0.179%
18,Cc1ccccc1OCC(=O)Nc1ccc(N2CCN(C)CC2)c(Cl)c1,-31.8%
19,CCN(CC(=O)NCc1ccc(Cl)cc1)S(=O)(=O)c1ccc(F)cc1,6.24%
20,Cc1cc(C)c2nc(SCC(=O)Nc3cc(C)on3)c(C#N)cc2c1,11.2%
21,O=C(Nc1ccc(C(=O)N2CCCCC2)cc1)c1cccc([N+](=O)[O-])c1,6.73%
22,O=S(=O)(c1ccc(F)c(F)c1F)N1CCN(C(=S)NC2CC3CCC2C3)CC1 (centres unmarked),9.35%

row,Compound,"hERG current change (%, negative = inhibition) at 1uM"
1,COc1ccc(/C=C/C(=O)NCCN2CCOCC2)cc1OC,17.5%
2,CCCC(=O)NC(Nc1cccc(C(F)(F)F)c1)C(Cl)(Cl)Cl (centres unmarked),-5.76%
3,CCOC(=O)CSc1nc(C)c(C(=O)OCC)s1,7.79%
4,COc1ccc(C(=O)Nc2ccc3c(c2)C(=O)N(C)C3=O)cc1OC,11.4%
5,CSc1ncc(Cl)c(C(=O)Nc2cccnc2)n1,20.2%
6,O=c1cc(O)c2sc3nc(C(F)(F)F)c4c(c3c2[nH]1)CCCCC4,1.18%
7,O=C(COC(=O)C1CC(=O)N(c2ccc3c(c2)OCCO3)C1)NC1CCCc2ccccc21 (centres unmarked),3.61%
8,CCc1ccc(NC(=O)c2cc(-c3ccc(F)cc3)on2)cc1,14.4%
9,Cc1cc(=O)cc(C)n1-c1ccccc1N,14.6%
10,COc1ccc(OCC(=O)Nc2c3c(nn2C(C)(C)C)CSC3)cc1,13.5%
11,CCCOc1ccc(/C=C/C(=O)N2CCOCC2)cc1,6.84%
12,C=CCNC(=O)CN(c1ccc(F)c(Cl)c1)S(C)(=O)=O,12.1%
13,Cc1c(CC(=O)N[C@@H](C)C(=O)O)c(=O)oc2c(C)c3occ(-c4ccccc4)c3cc12,15.6%
14,Br.O=C(Cn1c(NCCCO)nc2ccccc21)c1ccc(Cl)cc1,4.8%
15,COC(=O)C1=C(c2c(C)noc2C)C[C@@H]2CC[C@H]1N2C(=O)NCc1ccc(C(F)(F)F)cc1,4.74%
16,O=C(O)Cn1cc(/C=c2/sc3nc4ccccc4n3c2=O)c2ccccc21,10.8%
17,O=C(c1ccccc1F)N1CCCC(C(=O)N2CCN(c3ccccc3)CC2)C1 (centres unmarked),9.84%
18,COc1ccc(CNC(=O)c2ccc(CS(=O)Cc3cccc(Cl)c3)o2)cc1 (centres unmarked),6.13%
19,CCOc1ccccc1/C=C/c1onc(C)c1S(=O)(=O)N1CCC(C(=O)N(CC)CC)CC1,4.02%
20,CC(=O)c1ccc([N+](=O)[O-])c(CS(=O)(=O)c2ccc(Cl)cc2)c1,10.8%
21,CCOc1ccc(NC(=O)CN(C)C(=O)c2c(-c3c(F)cccc3Cl)noc2C)cc1OCC,0.132%
22,CC(Oc1ccc(-c2ccccc2)c(F)c1)c1ccn(S(=O)(=O)c2ccc(Cl)cc2)n1 (centres unmarked),9.07%

row,Compound,"hERG current change (%, negative = inhibition) at 1uM"
1,COc1cc(NC(=S)N2CCN(C(c3ccccc3)c3ccccc3)CC2)cc(OC)c1,5.67%
2,Fc1cccc(-c2n[nH]c(=S)n2-c2ccccc2)c1,14.1%
3,CCc1sc(NC(C)=O)nc1-c1ccccc1,-1.78%
4,CCCCn1c(N)c(N(CCOC)C(=O)c2oc3ccc(OCC)cc3c2C)c(=O)[nH]c1=O,9.76%
5,COCC1CCN(C(=O)CC2C(=O)NCCN2Cc2cccc(Oc3ccccc3)c2)CC1 (centres unmarked),9.18%
6,CCN(CC)CC(=O)NN(Cc1ccccc1)c1ccccc1.O=C(O)C(=O)O,-20.8%
7,O=C(O)C(=O)O.O=C(c1ccccc1)c1ccc(OCC(O)CNCc2ccc(F)cc2)cc1 (centres unmarked),-0.143%
8,N#Cc1ccc(C(=O)Nc2cccc3ccccc23)c(F)c1,13.2%
9,COc1cc2c(cc1OC)-c1nnc(-c3ccco3)n1C1(CCCC1)C2,5.39%
10,COc1ccccc1N1CCN(C2CCCN(C(=O)c3cc(C)oc3C)C2)CC1 (centres unmarked),11.9%
11,COc1ccc(N2CC(C(=O)OCC(=O)c3ccccc3)CC2=O)cc1 (centres unmarked),3.92%
12,O=C(CN(CC1CCCO1)C(=O)CNS(=O)(=O)c1ccc(F)cc1)NCc1ccc(F)cc1 (centres unmarked),10.8%
13,Cc1ccc(C)c(NC(=O)CN2C(=O)CNC2=O)c1,3.18%
14,CC(C(=O)Nc1cccc(C#N)c1)N(C)CCOc1ccccc1 (centres unmarked),7.36%
15,O=c1[nH]c2c(=O)[nH]cnc2nc1-c1ccccc1,4.97%
16,COCCNC(=O)CSc1n[nH]c(=O)n1CCc1ccccc1,13.7%
17,CSc1ccc(S(=O)(=O)N2CCC(C(=O)NCc3cccnc3)CC2)cc1,-4.49%
18,O=[N+]([O-])c1ccc(NCc2ccc(Cl)cc2)c2ccncc12,15%
19,COc1ccc(OC)c(/C=N/NC(=O)CCc2n[nH]c(=O)[nH]c2=O)c1,6.32%
20,CC1=C(C(=O)Nc2ccccc2)C2(CCCCC2)C(C(N)=O)C(=S)N1 (centres unmarked),-0.103%
21,CCCCCCCC(=O)NNC(=O)CC(=O)Nc1ccccc1C(=O)O,8.74%
22,COc1ccc(S(=O)(=O)NCCSCc2ccccc2C)cc1Br,4.03%

row,Compound,"hERG current change (%, negative = inhibition) at 1uM"
1,CCOC(=O)c1cccc(NC(=O)/C(=C\c2ccccc2)NC(=O)c2ccccc2Cl)c1,7.79%
2,COc1ccc(C2=NS(=O)(=O)N(C)C(C(=O)N(C)Cc3ccccc3)=C2)cc1,-34.9%
3,COC(CNC(=O)c1ccc(-n2c(=S)[nH]c3ccccc3c2=O)cc1)OC,1.5%
4,Cc1cc(-c2ccccc2)n2nc(C)c(-c3ccccc3)c2n1,3.83%
5,N/C(COc1cccc(Cl)c1)=N\NS(=O)(=O)c1ccccc1,9.81%
6,CCOC(=O)NC(=S)Nc1ccc(OC)cc1,7.86%
7,CC(C)c1ccc(OCc2nnc(SCC(=O)N3CCCCC3)o2)cc1,11.8%
8,O=C(c1ccc(F)cc1)c1cc2ccc(O)cc2oc1=O,9.87%
9,CCN1C(=O)[C@@H]2C(C(=O)c3cnccn3)=NN[C@@H]2C1=O,12.3%
10,COc1ccc(N(CC(=O)NCc2ccco2)C(=O)CNS(=O)(=O)c2ccc(Cl)cc2)cc1,6.58%
11,Cc1ccc(CNC(=O)C2CCCN2C(=O)Nc2ccc(C)cc2)cc1 (centres unmarked),12.4%
12,Cc1ccc(SCC(=O)NC2CCS(=O)(=O)C2)cc1 (centres unmarked),13.7%
13,Cn1c(SCc2ccccc2)nnc1-c1ccc2nonc2c1,6.9%
14,Cc1ccc(-n2nc(C(=O)O)cc2-c2ccccc2)cc1,18.9%
15,COc1ccccc1N1CCN(C(=O)c2cc(-c3ccc(Cl)c(Cl)c3)on2)CC1,6.91%
16,O=C1CC(N2CCSCC2)C(=O)N1c1cccc(Cl)c1 (centres unmarked),12.6%
17,CSc1cccc(NC(=S)N2CCC(c3ccccc3)C2)c1 (centres unmarked),13.3%
18,CC1CCC(NC(=O)c2cnccn2)CC1 (centres unmarked),14.1%
19,COc1ccc(C(=O)N/N=C(\C)CC(=O)Nc2cccc(C(F)(F)F)c2)cc1,7.5%
20,COCCNC(=O)CN(C(=O)CCC(=O)Nc1ccccn1)c1ccc(OC)cc1,15.2%
